Experimental data published in the supplement of paper PMC5655136.
Values come from read counts of a selection and are noisy.

The sequences below were run on NB7 (assay: fold depletion of shRNA, plasmid library share / infected cells without Dox share (9 days) (ratio); higher = more depleted after infection (more toxic, leaky expression from a Tet-inducible vector; NB7 is a neuroblastoma line without caspase-8)). Conditions: shRNA pool: CD95L ORF + CD95L 3'UTR + Venus libraries.
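Also: shRNA barcodes quantified by deep sequencing of PCR amplicons from cellular DNA, counts expressed as percent of each subpool, ratio averaged over two biological duplicates.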

Sequence | fold depletion of shRNA
CCTGCTGGAGTTCGTGACCGC | 2.24
GACCACCCTGGGCTACGGCCT | 1.94
GACGGCAACTACAAGACCCGC | 0.667
GATTTAAGGGATGGAAAAGGA | 0.93
CAGCCACAACGTCTATATCAC | 2.91
TCTGGTGATGATGGAGGGGAA | 1.5
ACGTATCTGAGCTCTCTCTGG | 0.747
GCTACCAGGTGTTCTACACTC | 2.31
GTCAAGTAAGAAGACATGAAC | 2.46
CCCTCGTGACCACCCTGGGCT | 3.03
GTCAAGATTTTGAATGCTTCC | 0.844
AAGAGAGGGAACCACAGCACA | 0.558
GGATTGGGCCTGGGGATGTTT | 0.209
CAATCAACTCTAATAGTGCTT | 0.336
CGACAACCACTACCTGAGCTA | 1.93
TATGGGTTGCATTTGGTCAAG | 0.688
GATTCTTTCCATTATGATTCT | 1.42
TGCTGCTGCCCGACAACCACT | 3.58
CCTGCAGTGCTTCGCCCGCTA | 2.3
AGAAGCAAATAGGCCACCCCA | 2.02
ATGCATTTGAGGTCAAGTAAG | 2.73
CACTGGCAGCATCTTCACTTC | 1.01
TAAGCTAAAGAGGCTGAAAGA | 2.55
GTGCTGATCATTTATATGTCA | 2.36
CATTTGGTCAAGATTTTGAAT | 1.54
GACACCTATGGAATTGTCCTG | 3.07
TGCTGCCCGACAACCACTACC | 1.41

Same assay, conditions: shRNA pool: CD95 ORF + CD95 3'UTR + Venus libraries

Sequence | fold depletion of shRNA
CCTGCTGGAGTTCGTGACCGC | 2.68
CAAAAAATACTTAATAGTCCA | 0.964
GACCACCCTGGGCTACGGCCT | 1.37
GACGGCAACTACAAGACCCGC | 0.89
TGAAAAACAACAAATTCAGTT | 1.04
TGCTAGATTATCGTCCAAAAG | 1.92
ACAGTCAATGGGGATGAACCA | 3.54
CCCTCGTGACCACCCTGGGCT | 2.36
AGTCCACCAAAAGGCAAGACT | 2.37
GGACCCAGAATACCAAGTGCA | 1.53
GAGCTTTGCCACCTCTCCATT | 0.338
AGAAATTCTAGCCTGGTTTGG | 3.79
ACCTTTTGCTGAAATATCAGT | 1.21
CAAACTTTTTTTGTAACTCTA | 0.807
CGACAACCACTACCTGAGCTA | 1.22
TGCTGCTGCCCGACAACCACT | 3.33
GCTGGGCATCTGGACCCTCCT | 1.25
CCTGCAGTGCTTCGCCCGCTA | 1.46
GAAAATGTTCAATAATGTCCC | 1.35
TTCATCAAGAGTAAATGCAGT | 1.88
TCCTACGTTTAAATATCTTTG | 0.95
AGCAAAGACCCCAACGAGAAG | 1.01
TGCAAAGAGGAAGGATCCAGA | 0.718
AAAAGATTCTTAATAGCTGGC | 1.66
ATTAAATTATAATGTTTGACT | 0.594
TCTAGAGATTTTACCATATTT | 0.784
ATTTCTAAACTTTGTTTATAA | 0.956
TGCTGCCCGACAACCACTACC | 1.08
ACACTAAGTCAAGTTAAAGGC | 1.12
